About 25,000 (6.9%) of roughly 360,000 compounds were called active. This list was built around the results that the source calls inconclusive (neither active nor inactive); the mix of calls is not that of the screen. Calls come from the whole dose curve; as a rule, active = well fitted inhibition curve with a large enough effect; inconclusive = small, poorly fitted or top-dose-only effect; inactive = flat fitted curve, though single readings scatter. Where the call is inconclusive, the potency comes from a doubtful curve fit.
Target: Luciferin 4-monooxygenase (Photinus pyralis) (UniProt P08659)
Assay: qHTS profiling assay for firefly luciferase inhibitor/activator using purifed enzyme and Km concentrations of substrates (counterscreen for miR-21 project); note: nearly all actives have a fitted effect of over 55% in size
Conditions: purified FLuc, luminescence inhibition; series mostly up to 57.5 µM
Method in brief: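 Biochemical qHTS of compounds, final roughly 60 µM downward over six points, against 10 nM purified firefly luciferase using Km concentrations of substrates (10 uM D-luciferin, 10 uM ATP) in Tris acetate pH 7.5 buffer; luminescence output.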
Potency is the fitted concentration of half-maximal effect; tags give direction and shape of the fitted curve.

Chain of UniProt P08659 (P08659 whole entry, looked up): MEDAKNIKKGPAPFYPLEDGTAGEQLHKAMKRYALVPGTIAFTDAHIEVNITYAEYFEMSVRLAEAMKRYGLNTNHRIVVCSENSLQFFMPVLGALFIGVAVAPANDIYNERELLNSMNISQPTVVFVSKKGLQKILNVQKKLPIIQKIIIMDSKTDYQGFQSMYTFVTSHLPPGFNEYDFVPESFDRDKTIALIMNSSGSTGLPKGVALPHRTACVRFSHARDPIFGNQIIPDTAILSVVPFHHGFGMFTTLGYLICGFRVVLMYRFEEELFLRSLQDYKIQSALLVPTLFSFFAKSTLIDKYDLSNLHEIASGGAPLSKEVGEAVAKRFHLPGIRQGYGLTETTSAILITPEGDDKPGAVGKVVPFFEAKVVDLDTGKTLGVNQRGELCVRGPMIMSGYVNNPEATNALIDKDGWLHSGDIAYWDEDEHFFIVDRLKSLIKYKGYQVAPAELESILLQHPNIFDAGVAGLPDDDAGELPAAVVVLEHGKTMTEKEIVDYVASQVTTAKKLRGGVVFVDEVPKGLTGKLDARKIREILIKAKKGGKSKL

Compound | Potency
CCCN(CC(=O)Nc1ccccc1OC)C(=O)CCC(=O)c1ccc(Cl)s1 | inactive
O=C(CSc1nnc(Nc2ccccc2)s1)NN1C(=O)NC2(CCCCC2)C1=O | active: 19 µM
C=C(C)c1cccc(C(C)(C)NC(=O)NCc2ccncc2)c1 | inconclusive: 42.6 µM [inhibitor, partial curve, poor fit]
CCOc1ccc(CCNC(=O)c2ccc3ccccc3n2)cc1OCC | inconclusive: 23.9 µM [inhibitor, partial curve, poor fit]
CCOc1cccc(C(=O)NC(=S)Nc2ccc(Cl)cc2C(=O)O)c1 | inconclusive: 21.3 µM [inhibitor, partial curve]
COc1cccc(CCNC(=O)c2ccc(C#N)cc2)c1 | inconclusive: 19 µM [inhibitor, partial curve]
Cc1cccc(N2CCN(C(=O)CCSCc3ccccc3F)CC2)c1C | inconclusive: 37.9 µM [inhibitor, partial curve, poor fit]
COc1ccccc1N1CCN(C(=O)Cn2ncc3c(=O)oc4ccc(C)cc4c32)CC1 | inactive
CCOC(=O)N1CCN(C2=Nc3cccc4cccc2c34)CC1 | inconclusive: 21.3 µM [inhibitor, partial curve, poor fit]
O=C(CCCOc1ccccc1)N1CCc2ccccc2C1 | active: 23.9 µM
O=C(N/N=C/c1ccc(O)cc1)c1ccc(COc2cc(Cl)ccc2Cl)o1 | inconclusive: 10.7 µM [inhibitor, partial curve]
Cc1ncoc1C(=O)Nc1ccc2c(c1)OCCO2 | active: 12 µM
Cc1c(N/C=C/C(=O)c2ccc(Cl)cc2)c(=O)n(-c2ccccc2)n1C | inconclusive: 30.1 µM [inhibitor, single point]
COC(=O)c1ccc(COc2cc(O)c3c(c2)OC(C)(C)CC3=O)cc1 | active: 15.1 µM
CCC(=O)NCCc1nc2cc(NC(=O)c3ccc(Cl)cc3)ccc2n1C | active: 10.7 µM
O=C(O)c1cc(-c2ccc(/C=N/Nc3ccc([N+](=O)[O-])cn3)o2)ccc1Cl | inconclusive: 26.9 µM [inhibitor, partial curve, poor fit]
COc1ccc(C(=O)NCCCNC(=O)c2ccccn2)cc1 | inactive
Cc1ccc(S(=O)(=O)NN/C(=N/S(=O)(=O)c2ccccc2)c2ccccc2)cc1 | inconclusive: 30.1 µM [inhibitor, partial curve, poor fit]
N/C(=N\N=C\c1ccc2c(c1)OCO2)c1nonc1N | active: 0.953 µM
N#CCC(=O)Nc1ccc(C(=O)Nc2ccc3c(c2)OCO3)cc1 | inconclusive: 13.5 µM [inhibitor, partial curve]
Cc1ccc(C(=O)Nc2ccc3nc(SCC(=O)N4CCCc5ccccc54)sc3c2)cc1 | inconclusive: 6.01 µM [inhibitor, full curve]
CSc1nc2sc3c(c2c(=O)n1Cc1ccccc1)CCC(C(C)(C)C)C3 (stereo not given) | inconclusive: 2.39 µM [inhibitor, full curve]
CC(C)(C)SCCNC(=O)Nc1ccccc1 | inconclusive: 33.8 µM [inhibitor, single point]

Compound | Potency
O=C(O)c1cccnc1SCc1cn2cc(Cl)ccc2n1 | inconclusive: 21.3 µM [inhibitor, partial curve]
CCN(CC(=O)NCc1cccs1)C(=O)/C=C/c1cccc(Cl)c1Cl | inconclusive: 30.1 µM [inhibitor, single point]
NS(=O)(=O)c1ccc(N/N=C/C=C/c2ccccc2[N+](=O)[O-])cc1 | active: 16.9 µM
CC(C)CN1C(=O)/C(=C(/C#N)C(=O)NC2CCCCC2)c2ccccc21 | inactive
CCOc1ccc(OCc2ccc(C(=O)N3CCc4ccccc4C3)o2)cc1 | inconclusive: 23.9 µM [inhibitor, single point]
CN(C)c1ccc(/C=C2\NC(=S)N(Cc3ccccc3)C2=O)cc1 | inconclusive: 13.5 µM [inhibitor, partial curve]
COc1ccc(OCc2nc3ccccc3n2Cc2ccccc2Cl)cc1 | inconclusive: 15.1 µM [inhibitor, partial curve]
C/C=C/C(=O)N1CC2(CC(c3cccc(NC(=O)COc4ccc(Cl)cc4)c3)=NO2)C[C@@H]1C(N)=O (stereo not given in full) | active: 19 µM
Cc1c(-c2ccccc2)oc2c(C(=O)N3CCN(c4ccc([N+](=O)[O-])cc4)CC3)cccc2c1=O | inactive
Cc1csc(NC(=O)c2cc(-c3ccccc3)nc3ccccc23)n1 | inconclusive: 26.9 µM [inhibitor, single point]
O=C(COC(=O)c1ccccc1Br)Nc1ccccc1F | inconclusive: 30.1 µM [inhibitor, single point]
O=C1/C(=C/N(C(=O)c2ccco2)c2ccc(Cl)cc2)Sc2ccccc21 | active: 0.135 µM
O=C(/C=C/c1ccccc1Cl)NNC(=O)c1cccs1 | inconclusive: 42.6 µM [inhibitor, partial curve, poor fit]
CC(=O)Nc1ccc(N(C(=O)CNC(=O)c2cccs2)C(C(=O)NCC2CCCO2)c2ccccc2)cc1 (stereo not given) | inactive
CC1CCC(C(=O)NC(C(=O)OCC(=O)c2ccccc2)C(C)C)CC1 (stereo not given) | inconclusive: 37.9 µM [inhibitor, partial curve, poor fit]
Cc1cccnc1NC(=O)c1ccc(C(=O)c2ccccc2)cc1 | inconclusive: 23.9 µM [inhibitor, partial curve, poor fit]
COc1cccc(-c2cn3nc4c(nc3n2)CCCC4)c1 | active: 0.757 µM
Cc1ccccc1C(=O)Nc1sc2c(c1C(=O)NCc1ccco1)CCC(C(C)(C)C)C2 (stereo not given) | inactive
COc1ccc(/C=N\NC(=O)c2ccc(-c3ccccc3)cc2)c(OC)c1OC | inactive
COCCCNC(=O)c1oc2c(c1C)-c1nn(Cc3ccccc3Cl)cc1CC2 | inactive
CC(=O)NC(=S)NNC(=O)COc1ccc(Br)cc1 | inconclusive: 26.9 µM [inhibitor, partial curve]
Cc1cc(=O)[nH]c(SCC(=O)Nc2ccc(S(=O)(=O)N3CCCCC3)cc2)n1 | inconclusive: 7.57 µM [inhibitor, partial curve, poor fit]

From PubChem BioAssay AID588342 (National Center for Advancing Translational Sciences (NCATS), 2011)
